Reference: the supplement of paper PMC3334620
The full ranking holds about 33,000 sequences; the median of “E-score (-0.5 to 0.5)” is about -0.043, and the highest 2% start at about 0.37. The list shows a part of the results.

molecular target: T1, Upc2 (UniProt Q12151); experiment: PBM E-score (8-mer binding enrichment) (E-score (-0.5 to 0.5)); higher = stronger / more preferred TF binding; most listed sequences are background and not binding sites; settings: protein concentration: 200 nM; construct: GST-full length
T1 sequence: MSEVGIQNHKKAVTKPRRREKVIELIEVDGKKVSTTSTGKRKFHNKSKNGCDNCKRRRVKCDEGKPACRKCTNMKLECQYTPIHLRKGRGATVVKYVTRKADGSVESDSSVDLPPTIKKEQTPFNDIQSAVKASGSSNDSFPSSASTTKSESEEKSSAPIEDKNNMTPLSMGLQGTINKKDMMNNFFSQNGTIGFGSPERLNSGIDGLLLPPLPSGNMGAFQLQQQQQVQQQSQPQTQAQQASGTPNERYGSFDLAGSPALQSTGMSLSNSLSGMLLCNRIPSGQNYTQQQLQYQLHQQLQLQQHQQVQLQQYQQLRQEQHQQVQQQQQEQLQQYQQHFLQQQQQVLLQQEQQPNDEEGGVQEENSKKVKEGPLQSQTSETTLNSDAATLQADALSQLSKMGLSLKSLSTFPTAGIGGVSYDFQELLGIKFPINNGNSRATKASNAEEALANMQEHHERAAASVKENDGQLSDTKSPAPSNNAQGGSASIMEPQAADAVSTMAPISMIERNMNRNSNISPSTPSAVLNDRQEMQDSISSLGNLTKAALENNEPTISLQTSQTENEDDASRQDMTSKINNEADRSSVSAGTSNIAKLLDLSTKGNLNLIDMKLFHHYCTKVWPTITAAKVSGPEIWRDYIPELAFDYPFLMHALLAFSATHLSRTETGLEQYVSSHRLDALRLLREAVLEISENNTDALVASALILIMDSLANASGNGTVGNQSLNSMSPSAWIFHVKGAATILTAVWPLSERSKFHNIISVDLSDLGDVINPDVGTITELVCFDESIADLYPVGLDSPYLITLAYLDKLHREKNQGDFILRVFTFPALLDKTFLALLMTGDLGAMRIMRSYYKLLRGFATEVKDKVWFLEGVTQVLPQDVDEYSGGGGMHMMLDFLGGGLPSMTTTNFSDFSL
Method in brief: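 Each ungapped eight-base word and its reverse complement, pooled, received an E-score from the Universal PBM Analysis Suite. Underlying scans, normalised with masliner, recorded fluorescent anti-GST bound to GST-tagged yeast transcription factors. These were applied at about 100-200 nM to universal all-10-mer Agilent arrays double-stranded by primer extension.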

Row | Sequence | PBM E-score
1 | ACGCTGAG | 0.0209
2 | CTAAGAGC | 0.0275
3 | AACCTCGA | 0.0605
4 | GTGTTCTA | 0.162
5 | ACGGCGTA | 0.261
6 | ATTTGAGA | 0.0579
7 | AAGGAACC | 0.235
8 | AAAAGTAT | 0.0531
9 | AATCAACC | -0.0403
10 | AGAAGTGC | -0.0394
11 | AGCAAGCT | -0.253
12 | CGATCGCA | 0.212
13 | AGGTCCGC | -0.267
14 | AAAGCTAA | -0.0248
15 | GGACCTGA | -0.131
16 | ATGCAGGG | -0.271
17 | CCACTCGC | 0.0979
18 | CAGTCGGG | -0.0126
19 | TACGCACA | 0.245
20 | CGCTGGGC | 0.0229
21 | ACAAATAA | 0.126
22 | TATTCGGA | 0.124
23 | GAACCGGA | -0.00053
24 | CGACCGAC | 0.0957
25 | TGGGCGAA | -0.0874

Row | Sequence | PBM E-score
26 | AGGATGCA | -0.0759
27 | ATCCGTTA | 0.199
28 | AGTAATCA | -0.141
29 | CAAAGACA | -0.126
30 | ACGTCCTA | -0.0897
31 | GAACGCAC | 0.0782
32 | GCTATCAC | 0.0212
33 | GTACGCGA | 0.347
34 | TGGCCACA | -0.218
35 | ACAAATTG | 0.0673
36 | ATATCCGG | -0.0439
37 | CCTGGTTA | -0.225
38 | TCTCAGCA | -0.137
39 | ATCCACTC | -0.128
40 | TCGAGCCA | -0.0555
41 | ACCTTTTG | -0.0248
42 | CTCCAGTC | -0.153
43 | AGTGAGGG | -0.247
44 | CGGAAACG | 0.277
45 | ACGGCATA | 0.257
46 | AAGGACTC | -0.138
47 | AAACGTAG | 0.204
48 | AACAGTTG | -0.156
49 | ATTAGCGC | 0.133
50 | ACCCGCCT | 0.109

Row | Sequence | PBM E-score
51 | CAAACATA | -0.154
52 | ATGTTCGG | -0.0847
53 | ACGTGATC | 0.0566
54 | CTATACTA | 0.192
55 | AGACCAAA | -0.169
56 | GCAATTAA | -0.0261
57 | AAGGAGAG | -0.304
58 | AATCTCGC | 0.197
59 | AAGCACAA | -0.107
60 | CAGCATTA | 0.0313
61 | CTAGCCAG | -0.267
62 | GGCTATAC | 0.299
63 | AACTTTTG | -0.0929
64 | ACCTAACT | -0.0287
65 | GAATCCGA | 0.128
66 | GATGTGGA | -0.074
67 | AGGTGAAC | 0.0761
68 | CTTCGTAC | 0.458
69 | GACCCCCA | -0.217
70 | CCTCAACG | 0.0862
71 | ATCATTCC | -0.0223
72 | CTACAAAC | 0.0709
73 | TAGAGTCA | -0.305
74 | ATGCTCCC | -0.12
75 | GTTTTCCA | 0.0934

Row | Sequence | PBM E-score
76 | ATCGGACG | -0.124
77 | GGTGAAGA | -0.00573
78 | ACTAGCGG | -0.175
79 | CAAGGAAA | -0.189
80 | ATACAGCA | 0.08
81 | TACTTGGA | 0.0155
82 | GTGACGGA | -0.222
83 | CAGCCGGG | -0.327
84 | TATGTTAA | 0.0325
85 | GGCCCTGA | -0.0842
86 | CGCGACTA | 0.138
87 | AAAAGACT | 0.0632
88 | AATGTCAT | 0.00939
89 | GACGAGAC | 0.0394
90 | CGCTCTAA | 0.122
91 | TAGGGCCA | -0.191
92 | AAAAGTTG | -0.0427
93 | TAGGCTGA | -0.0698
94 | CGCCAATC | 0.0223
95 | ACCGTCAG | -0.0757
96 | CAAACTCA | -0.126
97 | CGCAGGAC | -0.187
98 | CATATATG | -0.16
99 | CGAGGGGC | 0.105
100 | CCCACTCG | 0.169

Row | Sequence | PBM E-score
101 | ATTAGTTC | -0.026
102 | ACCTTTCC | -0.186
103 | CCGAACAA | 0.0223
104 | AAGGTTGA | -0.129
105 | CTCAGCAG | -0.136
106 | CGTTCACA | 0.354
107 | CACCAGGA | -0.0946
108 | TACGGTGA | 0.327
109 | GCCAGGGC | -0.132
110 | CTCTGCCC | -0.211
111 | AAGGACTA | -0.303
112 | AGCGGGCC | -0.0852
113 | CGCCCTCC | -0.179
114 | ACTTCTTC | 0.0168
115 | TCAGAAAA | -0.153
116 | AAGGTCAC | -0.258
117 | CCTGCTGA | -0.133
118 | CCCCTCTA | -0.101
119 | AACTACAG | -0.0598
120 | GAGCAAGC | -0.0288
121 | AGGGGGAA | -0.27
122 | AATCTAGT | 0.0673
123 | CGCTTGAC | -0.0303
124 | CGTATTAC | 0.325
125 | GACCCTAA | -0.0466

Row | Sequence | PBM E-score
126 | GAGTTTAA | 0.128
127 | ATTCAGGG | -0.252
128 | CGCATTGA | 0.0874
129 | CGGATGAC | 0.13
130 | CTCTGAAC | 0.124
131 | AATTTCTG | 0.152
132 | GAGCATAA | 0.0722
133 | AAATTTAA | 0.184
134 | ATACGTAG | 0.26
135 | GTTCTGCA | 0.0392
136 | CCGTGCTA | -0.196
137 | ACTCAGCC | -0.269
138 | TCTCGTAA | 0.434
139 | GTATTCAC | 0.0672
140 | CCCAGTCG | 0.00621
141 | ATGCTACG | 0.177
142 | AAACGTAC | 0.33
143 | ACATGAAC | 0.105
144 | ATCACAGG | -0.223
145 | TGCTCCAA | -0.146
146 | CCATAGGC | -0.129
147 | ACGAGCTG | 0.36
148 | CAAGCGCA | 0.118
149 | CTTCTGAC | -0.203
150 | CGCCTCTC | -0.224

Row | Sequence | PBM E-score
151 | GAATGCTC | -0.137
152 | CAGGCTGA | -0.283
153 | CCACCAAC | -0.112
154 | TAAAGACA | -0.156
155 | ACCGGCGT | 0.143
156 | TCGCTACA | -0.0174
157 | ATGAATGC | -0.0709
158 | CTCATAAC | -0.125
159 | ATGACAAT | 0.0715
160 | CTTGAGAC | -0.196
161 | CATGACCG | 0.0106
162 | CACGAATG | 0.0101
163 | ACGCCTTC | -0.0211
164 | AGACCTCT | 0.0513
165 | ATAGGTAA | 0.0176
166 | ACTGCACT | -0.0735
167 | CGCAAAAC | 0.169
168 | CTCACCGC | -0.19
169 | GCACCCGC | 0.0103
170 | AGGGTGAT | -0.0881
171 | CGAATCGC | 0.132
172 | AGTTAATA | -0.0115
